Experimental data from article PMC4336329 (PLoS ONE, 2015).
In all, about 310,000 compounds went through this assay and about 14,000 (4.5%) showed an effect of 50% or more. The effect is printed as a negative number. This is one part of the list.

Each compound was assayed against human ether-à-go-go-related gene (hERG) potassium channel (human, UniProt Q12809) (assay: primary screen, population patch clamp on CHO cells stably expressing hERG).
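Also: peak tail current of the secondary pulse compared with the same well before compound.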

Sequence of human ether-à-go-go-related gene (hERG) potassium channel (Q12809 whole entry, looked up): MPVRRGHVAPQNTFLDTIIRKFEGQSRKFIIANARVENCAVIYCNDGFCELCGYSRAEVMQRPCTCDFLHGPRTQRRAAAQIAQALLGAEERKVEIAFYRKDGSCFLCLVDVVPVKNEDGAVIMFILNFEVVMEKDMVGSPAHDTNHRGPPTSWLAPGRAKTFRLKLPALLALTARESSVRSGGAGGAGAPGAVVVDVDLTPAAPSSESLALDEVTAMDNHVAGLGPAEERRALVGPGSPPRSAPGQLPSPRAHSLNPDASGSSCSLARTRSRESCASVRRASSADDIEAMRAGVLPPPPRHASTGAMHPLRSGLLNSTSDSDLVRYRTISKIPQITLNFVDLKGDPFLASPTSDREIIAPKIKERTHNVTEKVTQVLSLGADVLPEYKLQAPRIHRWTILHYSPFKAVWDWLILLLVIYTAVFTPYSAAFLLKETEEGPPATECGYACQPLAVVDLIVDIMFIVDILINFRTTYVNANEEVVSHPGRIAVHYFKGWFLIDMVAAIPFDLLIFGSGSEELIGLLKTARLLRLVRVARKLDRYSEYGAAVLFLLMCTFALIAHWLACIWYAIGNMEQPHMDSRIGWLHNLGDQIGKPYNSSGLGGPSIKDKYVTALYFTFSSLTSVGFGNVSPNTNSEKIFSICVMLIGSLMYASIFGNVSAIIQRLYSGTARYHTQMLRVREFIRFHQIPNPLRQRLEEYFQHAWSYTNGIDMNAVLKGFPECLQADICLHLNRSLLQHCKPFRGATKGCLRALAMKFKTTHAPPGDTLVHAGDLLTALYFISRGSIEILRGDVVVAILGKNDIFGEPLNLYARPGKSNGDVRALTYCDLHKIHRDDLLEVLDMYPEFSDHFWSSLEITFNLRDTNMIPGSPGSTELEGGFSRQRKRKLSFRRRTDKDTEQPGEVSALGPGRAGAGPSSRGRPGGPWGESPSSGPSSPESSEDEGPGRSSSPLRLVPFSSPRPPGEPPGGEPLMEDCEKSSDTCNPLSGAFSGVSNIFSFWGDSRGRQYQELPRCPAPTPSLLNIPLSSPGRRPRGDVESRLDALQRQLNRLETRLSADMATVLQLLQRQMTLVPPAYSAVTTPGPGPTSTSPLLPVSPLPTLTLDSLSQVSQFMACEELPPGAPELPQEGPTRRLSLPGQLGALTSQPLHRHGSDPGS

Compound | hERG current change (%, negative = inhibition) at 10uM [%]
CCC(=O)O/N=C(\N)c1ccc(Oc2cc(C)c(Cl)c(C)c2)c([N+](=O)[O-])c1 | 5.6
O=C(CN1CCN(Cc2ccccc2F)CC1)Nc1ccccc1Cl | -27.6
CCOC(=O)N1CCN(S(=O)(=O)c2ccc(C(=O)N(CCCN(C)C)c3nc4c(F)cc(F)cc4s3)cc2)CC1.Cl | -51.3
CCN(Cc1ccccc1)C(=O)c1ccc(C)c(S(=O)(=O)N2CCCCC2)c1 | -18.4
Cc1ccc(S(=O)(=O)CCC(=O)OCCOc2cccc(Br)c2)cc1 | -7.39
Oc1ccc(Cl)cc1C1=NCCNC(C(F)(F)C(F)F)=C1 | -48.3
CNS(=O)(=O)c1cccc(C(=O)OCC(=O)N2c3ccccc3NC(=O)C2(C)C)c1 | -12.6
CCC1=NC(c2ccccc2)N(O)C1(C)C (stereo not shown) | 15.8
COC(=O)C1CCN(C(c2cccs2)c2sc3nc(C)nn3c2O)CC1 (stereo not shown) | -6.71
COc1ccccc1C(=O)O/N=C(/c1ccncc1)c1ccc([N+](=O)[O-])cc1 | -67.9
Cc1ccc2[nH]c3c(=O)n(CC(=O)NCCCN(C)Cc4ccccc4)ncc3c2c1 | -31.6
CN(CC(=O)N1CCN(c2ccccn2)CC1)S(=O)(=O)c1ccc(Cl)cc1 | -46.2
COc1cccc(OCc2cc(/C=N/Nc3ccc(C(=O)O)cc3)ccc2OC)c1 | 7.71
O=C1Nc2ccccc2C(=O)N2[C@H](c3cccc(Br)c3)[C@@H]3C(=O)N(Cc4ccccc4)C(=O)[C@@H]3[C@H]12 | -10.1
O=S(=O)(NCCC1=CCCCC1)c1ccc(Br)cc1 | -1.61
O=C(NCC1CCCO1)C1CCN(C(=O)c2ccc(Br)cc2)CC1 (stereo not shown) | -10.1
CCCC(=O)Nc1ccc(C(=O)COC(=O)c2cc(C)oc2C)cc1 | -0.605
Cc1cccc(NC(=O)Cn2c(O)c(N=NC(N)=S)c3ccccc32)c1 | 11.8
CCN1CCN(C(=O)N2CCOCC2)CC1 | 15.5
Cc1ccc(S(=O)(=O)Nc2ccc3c(c2)n(C)c(=O)n3C)c(C)c1 | 4.89
Cn1cnnc1Sc1ccc(C(F)(F)F)cc1[N+](=O)[O-] | 2.45
Cc1ccc(Nc2ncnc3c2nnn3Cc2ccccc2)cc1 | 8.07

Compound | hERG current change (%, negative = inhibition) at 10uM [%]
COc1cccc(C2CC(=O)C3=C(C2)Nc2ccccc2N(C(=O)CCC(=O)O)C3c2ccc(F)cc2)c1 (stereo not shown) | 5.1
O=C(Nc1ccc2c(c1)OCCO2)C(=S)NCc1ccccc1 | 15
Clc1ccc(CONc2ncnc3nonc23)c(Cl)c1 | -14.6
CCN(CC)c1ccc(CN(C(=O)c2cc(OC)c(OC)c(OC)c2)C2CCS(=O)(=O)C2)cc1 (stereo not shown) | 0.346
Cc1oc(CC(C)C)cc1C(=O)Nc1cccc2ccccc12 | -58.8
CCOc1ccc(NC(=O)CCC(=O)Oc2ccc(C)cc2)cc1 | 21.9
Nc1ccc(N2CCN(c3ccc(Cl)c(Cl)c3)CC2)cc1 | 0.35
COc1ccc([C@H]2Cc3cccc(O)c3C(=O)O2)cc1O | -14
CCC(CC)NC(=O)COC(=O)CCC(=O)c1ccc(Cl)cc1 | -0.492
O=P(Nc1ccccc1Cl)(c1ccccc1)c1nc2c(s1)CCCC2 (stereo not shown) | -49.2
COC(=O)[C@H](CC(C)C)NC(=O)NCCC1=CCCCC1 | 1.61
Cc1cc(C)c(-c2c(O)c3cccc4c3n(c2=O)CCC4)c(C)c1 | -20.7
CCN(CC)C(=O)C1=C(C)Nc2nnnn2C1c1cccnc1 (stereo not shown) | 3.24
CCN(CC(=O)Nc1ccc(NC(C)=O)cc1)C(=O)CCCSc1nc2ccccc2[nH]1 | -0.716
O=C(CCNS(=O)(=O)c1ccc(Cl)cc1)N1CCCCCC1 | -11.3
O=S(=O)(c1ccccc1F)N1CCN(CC(O)c2ccccc2)CC1 (stereo not shown) | 2.67
O=C(C1CCCN(Cc2ccc([N+](=O)[O-])cc2)C1)N1CCCCC1.O=C(O)C(=O)O (stereo not shown) | -28.4
CSc1nnc2ccc(-c3ccccn3)nn12 | 12.4
COC(=O)C1(C)Nc2ccccc2C(=O)N1c1ccccc1OC (stereo not shown) | 10.8
CCCCNC(=S)Nc1ccc2nc3n(c(=O)c2c1)CCCCC3 | -43.6
CCOC(=O)C1=C(C)NC(=O)C1CC(=O)O (stereo not shown) | 35.5
O=C(O)/C=C/c1ccc(S(=O)(=O)Nc2ccc3[nH]c(=O)[nH]c3c2)cc1 | 15.7

Compound | hERG current change (%, negative = inhibition) at 10uM [%]
CC(C)N1CCC(NC(=O)Nc2ccc3c(c2)OCO3)CC1 | 4.06
CN(C)CCCN(C(=O)c1ccc(N2C(=O)CCC2=O)cc1)c1nc2c(F)cccc2s1.Cl | -0.103
COc1ccc(CCNC(=O)COc2cc(O)c3c(c2)OC(C)(C)CC3=O)cc1 | -31.3
COc1ccc(-c2cc(C(F)(F)F)n3ncc(C(=O)O)c3n2)cc1OC | 8.39
CCCn1c(CNc2ccccc2O)nc2ccccc21 | -5.21
CCN(Cc1cnn(C)c1)Cc1nc(C2(c3ccc(C)cc3)CCCC2)no1 | -19.5
Cc1sc2nc3ccc(NCc4ccco4)nn3c(=O)c2c1C | -21.7
COc1ccc(C(C(=O)NC(C)(C)C)N(C(=O)CCC(=O)Nc2cc(C)on2)c2cccc(F)c2)cc1 (stereo not shown) | 9.26
COc1ccc(C(C(=O)NCC2CCCO2)N(Cc2ccco2)C(=O)c2snc(C(N)=O)c2N)cc1OC (stereo not shown) | 0.649
COc1ccccc1OCC(=O)N1CCCC(Nc2cccc(F)c2)C1 (stereo not shown) | -1.55
CC(C)Oc1ccc(Nc2ncnc3ccccc23)cc1.Cl | -46.7
C[C@H]1CN=C(N(C)C)N1CCC1CCCC1 | 8.34
CCN(CC)c1ccc2c(C)c(Cl)c(=O)oc2c1 | -14.4
CCCSc1nc2ccsc2c(=O)n1CC | 11.7
Cc1ccc(NC(=O)Nc2sc(=S)n(C)c2C)cc1 | 15.4
COc1cccc(CC(=O)NC2CCCN(Cc3ccc(Cl)cc3)C2)c1 (stereo not shown) | -26.3
CCOC(=O)Nc1nnc(/C=C/c2ccc(OC)cc2)s1 | -1.68
Cc1cccc(OCCC(=O)Nc2ccccc2C(N)=O)c1 | 8.57
CC(=O)Cc1nsc(NC(=O)c2ccc(COc3ccccc3Cl)o2)n1 | 2.65
COc1ccc2c(C)cc(N3CCOCC3)nc2c1 | -7.7
CCOC(=O)C1=C(COC(=O)CCOc2ccccc2C)NC(=O)NC1C (stereo not shown) | -28.4
COc1ccc(CN2CCN(CCCc3ccccc3)C(CCO)C2)c(O)c1 (stereo not shown) | -83.1

Compound | hERG current change (%, negative = inhibition) at 10uM [%]
COC(C/C=C/C(=O)[C@H](C)OCc1ccccc1)OC | 15.8
COc1ccc(-n2nc([N+](=O)[O-])c(=NCc3ccc4c(c3)OCO4)n2O)cc1 | 2.64
CC(=O)c1cn(N(C)c2ncc(C(F)(F)F)cc2Cl)c(=O)[nH]c1=O | 4.84
Cc1ccc(OCCNC(=O)c2cccc(C)c2)cc1 | 1.64
CC(C)CNC(=O)COC(=O)c1cc(S(=O)(=O)N(C)C)ccc1N1CCCC1 | -13.2
COC(=O)Cn1c(CN2CCOCC2)nc2c1c(=O)[nH]c(=O)n2C | 3.43
COc1ccc(Cn2c(-c3ccc(OC)cc3)n[nH]c2=S)cc1 | 20
CCOCCCNS(=O)(=O)c1ccc(NC(=O)c2ccc(OC)c([N+](=O)[O-])c2)cc1 | 22.3
Cc1cc2c(cc1S(=O)(=O)N1CCN(c3ccccc3)CC1)OCC(=O)N2 | -8.37
O=C(NCCC1=CCCCC1)C1CCCN(S(=O)(=O)c2cccnc2)C1 (stereo not shown) | -11.2
CCN(CC)C(=O)CSC(Nc1cccc(F)c1)=C(C#N)C#N | 16
COc1ccccc1-c1ccc(SCC(=O)NCc2ccc3c(c2)OCO3)nn1 | -6.04
O=C(CCN1CCOCC1)Nc1cc(C(=O)Nc2ccccc2F)ccc1N1CC2CC(C1)c1cccc(=O)n1C2 (stereo not shown) | 11.8
Nc1nnc(CCN2C(=O)CSC2=O)s1 | 13.9
O=C(N/N=C/c1cn(-c2ccccc2)nc1-c1cccs1)c1ccncc1 | -10.2
COc1ccc(OCC(=O)Nc2ccc3c(c2)nc(CCN2CCC(C)CC2)n3C)cc1 | -75.4
O=C(COC(=O)C1CC2C=CC1C2)NCc1ccccc1Cl (stereo not shown) | -0.904
Cc1nnc(SCC(=O)NNC(=O)COc2ccc(Br)cc2)n1C | -11.3
O=C1NC(=O)N(c2ccc(Cl)cc2)C(=O)/C1=C\c1ccc(Sc2nc3ccccc3[nH]2)o1 | -65.6
COCCN(C(=O)CSc1nnc(-c2cccs2)n1N)c1c(N)n(Cc2ccccc2)c(=O)[nH]c1=O | 0.15
c1ccc(Nc2ccccn2)nc1 | 7.19
O=C(O)c1n[nH]c2ccccc12 | -4.09
